Measurements reported in the supplement of paper PMC7125110.
± gives the standard error. Variants at the floor of the assay are shown more often than the library holds them.

B1: glmS ribozyme (parent)
chain: AUAAAAGCGCCAGAACUACAGAAAUGUAGUUGACGAGGAGGAGGUUUAUCGAAUUUUCGGCGGAUGCCUCCAAA

Assays:
Conditions in all cases: with glucosamine-6-phosphate
[1] = variants of: B1; assay: self-cleavage kobs at 640 uM GlcN6P; higher = faster cleavage; RNA array
Outline: (§1)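 kobs was derived by fitting per-tile medians to one- or two-exponential decays after normalising signals to baseline and to non-cleaving reference variants. Those signals came from barcoded ribozyme variants transcribed in situ by E. coli RNA polymerase on sequenced MiSeq chips, followed through a hybridised Cy3 probe at 37 °C and imaged over ~14 h. Glucosamine-6-phosphate (40 μM to 10 mM) in HEPES/KCl/Mg(OAc)2 buffer was flowed in. Weighted Michaelis–Menten fits across concentrations then gave kcat and KM.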

[2] = variants of: B1; assay: self-cleavage kobs at 2500 uM GlcN6P; higher = faster cleavage; RNA array
Outline: as §1

[3] = variants of: B1; assay: self-cleavage kobs at 10000 uM GlcN6P; higher = faster cleavage; RNA array
Outline: as §1

[4] = variants of: B1; assay: self-cleavage kobs at 160 uM GlcN6P; higher = faster cleavage; RNA array
Outline: as §1

Row | Variant | self-cleavage kobs at 640 uM GlcN6P [1] | self-cleavage kobs at 2500 uM GlcN6P [2] | self-cleavage kobs at 10000 uM GlcN6P [3] | self-cleavage kobs at 160 uM GlcN6P [4]
1 | AUAAAAGCGCCAGAACUACAGAAAUGUAGUUGACGAGGAGGAGGUUUACCGAAUUUUCGGCGGAUGCCCUCAAA [U49C U69C C70U] | < 1e-05 s⁻¹ | – | – | –
2 | AUAAAAGCGCCAGAACUACAGAAAUGUAGUUGACGAGGAGGAGGUUUAUAGAAUUUUCGGCGGAUGCCUCCAAA [C50A] | 1.25e-05 ± 3.1e-06 s⁻¹ | 2.31e-05 ± 2.1e-06 s⁻¹ | 2.49e-05 ± 1.3e-06 s⁻¹ | –
3 | AUAAAAGCGCCAGAACUACAGAAAUGUAGUUGACGAGGAGGAGGUUUAGCGAAUUUUCGCCGGAUGCCUCCAAA [U49G G60C] | < 1e-05 s⁻¹ | < 1e-05 s⁻¹ | – | < 1e-05 s⁻¹
4 | AUAAAAGCGCCAGAACUACAGAAAUGUAGUUGACGAGGAGGAGGUUUAGCGAAUUUUCGACGGAUGCCUCCAAA [U49G G60A] | < 1e-05 s⁻¹ | < 1e-05 s⁻¹ | < 1e-05 s⁻¹ | < 1e-05 s⁻¹
5 | AUAAAAGCGCCAGAACUACAGAAAUGUAGUUGACGAGGAGGAGGUUUAUUGAAAUAUCGGCGGAUGCCUCCAAA [C50U U54A U56A] | < 1e-05 s⁻¹ | – | – | –
6 | AUAAAAGCGCCAGAACUACAGAAAUGUAGUUGACGAGGAGGAGGUUUACCGAAAUUUCGGCGUAUGCCUCCAAA [U49C U54A G63U] | < 1e-05 s⁻¹ | < 1e-05 s⁻¹ | – | –
7 | AUAAAAGCGCCAGAACUACAGAAAUGUAGUUGACGAGGAGGAGGUUUAUUGAAUUUUCUGCCGAUGCCUCCAAA [C50U G59U G62C] | < 1e-05 s⁻¹ | – | – | –
8 | AUAAAAGCGCCAGAACUACAGAAAUGUAGUUGACGAGGAGGAGGUUUUUCGAAUUUUCGGCGGGUGGCUCCAAA [A48U A64G C67G] | < 1e-05 s⁻¹ | – | – | < 1e-05 s⁻¹
9 | AUAAAAGCGCCAGAACUACAGAAAUGUAGUUGACGAGGAGGAGGUUUACCGAAUGUUCGGCGGAUGCCUCCAAA [U49C U55G] | < 1e-05 s⁻¹ | < 1e-05 s⁻¹ | – | –
10 | AUAAAAGCGCCAGAACUACAGAAAUGUAGUUGACGAGGAGGAGGUUUAGCGAAUUUUCGUCGGAUGCGUCCAAA [U49G G60U C68G] | < 1e-05 s⁻¹ | < 1e-05 s⁻¹ | – | –
11 | AUAAAAGCGCCAGAACUACAGAAAUGUAGUUGACGAGGAGGAGGUUUAUAGAAUUUCCGGCGGAUGCCUCCAAA [C50A U57C] | < 1e-05 s⁻¹ | – | – | –
12 | AUAAAAGCGCCAGAACUACAGAAAUGUAGUUGACGAGGAGGAGGUUUAGCGAAUUUUCGGCGAAUUCCUCCAAA [U49G G63A G66U] | < 1e-05 s⁻¹ | < 1e-05 s⁻¹ | – | –
13 | AUAAAAGCGCCAGAACUACAGAAAUGUAGUUGACGAGGAGGAGGUUUAUUGAAUUUUCGGCGGAUGCCUGCAAA [C50U C70G] | 8.51e-05 ± 1.6e-05 s⁻¹ | – | – | 0.000293 ± 0.00013 s⁻¹
14 | AUAAAAGCGCCAGAACUACAGAAAUGUAGUUGACGAGGAGGAGGUUUAUCCAUUUUUCCGCGGAUGCCUCCAAA [G51C A53U G59C] | < 1e-05 s⁻¹ | < 1e-05 s⁻¹ | – | –
15 | AUAAAAGCGCCAGAACUACAGAAAUGUAGUUGACGAGGAGGAGGUUUAACGAAUUUCCGGCAGAUGCCUCCAAA [U49A U57C G62A] | < 1e-05 s⁻¹ | – | – | –
16 | AUAAAAGCGCCAGAACUACAGAAAUGUAGUUGACGAGGAGGAGGUUUUUCGAAUUUACUGCGGAUGCCUCCAAA [A48U U57A G59U] | < 1e-05 s⁻¹ | < 1e-05 s⁻¹ | – | < 1e-05 s⁻¹
17 | AUAAAAGCGCCAGAACUACAGAAAUGUAGUUGACGAGGAGGAGGUUUAGCGAAUUUUCGGUGGAUGCCUCAAAA [U49G C61U C71A] | < 1e-05 s⁻¹ | < 1e-05 s⁻¹ | < 1e-05 s⁻¹ | –
18 | AUAAAAGCGCCAGAACUACAGAAAUGUAGUUGACGAGGAGGAGGUUUUUCUAAUCUUCGGCGGAUGCCUCCAAA [A48U G51U U55C] | < 1e-05 s⁻¹ | – | – | –
19 | AUAAAAGCGCCAGAACUACAGAAAUGUAGUUGACGAGGAGGAGGUUUAACCAAUAUUCGGCGGAUGCCUCCAAA [U49A G51C U55A] | < 1e-05 s⁻¹ | < 1e-05 s⁻¹ | – | –
